Results reported in PubChem BioAssay AID1508624 (National Center for Advancing Translational Sciences (NCATS), 2021).
The whole screen tested about 48,000 compounds, of which about 120 (0.25%) were called active. Another 4% or so got no clear call; they are omitted. The call rests on the fitted dose curve; in most records, active means well fitted activation curve with a large enough effect; inconclusive means small, poorly fitted or top-dose-only effect, or another doubt; inactive means no such curve, though single readings can be large or run the other way. This is one part of the list.

Assay: Primary qHTS for Identification of Small Molecule Activators of Huntingtin-Antisense Promoter Activity; further: nearly all actives have a fitted effect of over 55% in size
Details: HEK293 HTT-AS promoter firefly luciferase reporter, 24 h; series mostly up to 57.5 µM; activity change, positive = activation: at the top concentration
Method in brief: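 HEK293 cells carrying firefly luciferase reporters were seeded at 2,500 per well in Opti-MEM and cultured for 24 h. They were then treated with compounds at up to 57.5 uM final for 24 h at 37 degrees C before Dual-Glo luminescence readout.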

Activity change, positive = activation, inactive:
COc1ccc(NC(=O)CSc2ncc(-c3ccc(Cl)cc3)[nH]2)cc1OC -27.8%, Cc1cc(S(=O)(=O)Nc2cccc(C(=O)O)c2)c(C)c(S(=O)(=O)c2ccccc2)c1 -16.8%, COC(=O)c1cc(NC(=O)CCc2c(C)nc3c4c(C)cc(C)nc4nn3c2C)cc(C(=O)OC)c1 -10.9%, CCOC(=O)c1sc2ccccc2c1S(=O)(=O)Nc1ccc(N(C)C)cc1 -40%, CCOC(=O)c1sc(N2C(=O)c3oc4cc(C)c(C)cc4c(=O)c3C2c2cccc(O)c2)nc1C (stereo not given) -1.72%, Cc1ccc(Cn2c(=O)n(CCCCC(=O)NCCc3ccc(Cl)cc3)c(=O)c3ccccc32)cc1 -36.8%, Cc1cc(C)cc(OCC(=O)NCC(c2ccc(Cl)cc2)N2CCCCC2)c1 (stereo not given) -7.7%, CC1CCc2c(sc3nnn(Cc4ccc(F)cc4)c(=O)c23)C1 (stereo not given) -22%, Cn1c(=O)c2c(n3c4ccccc4nc13)NC(=O)CC2c1ccccc1F (stereo not given) 0%, CCc1nnc2c(Nc3ccc(Br)c(C)c3)nc3ccccc3n12 4.45%, COc1ccc(S(=O)(=O)N2CCN(c3ccc(F)cc3)CC2)cc1-c1noc(C)n1 -25.5%, COc1cc(NC(=O)Cn2c(=O)n(Cc3ccccc3OC)c(=O)c3cccnc32)cc(OC)c1 -36.6%, Cc1ccc(C(=O)COC(=O)c2cc(-c3ccccc3)nc3ccccc23)cc1C -5.81%, Cc1ccc(C)c(N2CCN(S(=O)(=O)c3ccc4oc(=O)c5ncn(C)c5c4c3)CC2)c1 -10.3%, COc1ccc(NC(=O)CCN2CCN(c3cccc(Cl)c3)CC2)cc1 -13%, Cc1ccc(S(=O)(=O)c2nnn3c2nc(NCc2ccc(F)cc2)c2sccc23)cc1 -11%, CCCNC(=O)c1ccc2c(c1)N(Cc1cccc(C)c1)C(=O)c1ccccc1S2 -41.3%, CCc1ccccc1NC(=O)c1cc(S(=O)(=O)N(CC)c2ccccc2)ccc1F -35.7%, COc1ccccc1NC(=O)CCCOc1cc(=O)n(C)c2ccccc12 22.5%, CC1CCN(c2nc3c(S(=O)(=O)c4ccccc4)nnn3c3ccsc23)CC1 -13%, Oc1c(I)cc(I)c2cccnc12 -4.33%, COc1ccc(-c2nc(C)c(CCNC(=O)C(=O)Nc3cccc(F)c3)s2)cc1OC 16.9%, O=C(CC1N=C2c3ccccc3N=C(SCC(=O)Nc3cccc(C(F)(F)F)c3)N2C1=O)NCc1cccs1 (stereo not given) -20%, COc1ccc(CCNC(=O)c2nn(-c3ccc(C)cc3)c(=O)c3c2c2ccccc2n3C)cc1OC 1.7%, Cc1ccc(C)c(Cn2c(=O)n(Cc3ccccc3)c(=O)c3c(C)c(C)sc32)c1 7.97%, CCOC(=O)CCn1nc(-c2ccc(C)cc2)c2ccccc2c1=O -5.61% [at 11.5 µM, percent change from vehicle, -100% = no light], CCc1ccc(CN(Cc2ccco2)C(=O)c2ccccc2Cl)cc1 -7.35%, CCn1cc(C(=O)O)c(=O)c2cnc(N3CCNCC3)nc21 4.36%, COc1ccc(NC(=O)CSc2nccn2Cc2ccc3c(c2)OCO3)cc1 -11.2%, COc1ccc(C)cc1NC(=O)C(=O)NCC(c1cccnc1)N1CCc2ccccc21 (stereo not given) -27.4%, Cc1ccc(-n2c3c(cc(C(=O)Nc4ccccc4C(N)=O)c2=O)C(=O)CC(C)(C)C3)cc1 -22.5%, CN(C)CCNC(=O)CN1C(=O)COc2ccc(S(=O)(=O)N3CCCC3)cc21 -3.66%, Cc1cc(C)c(NC(=O)CSc2ccc(-c3ccccn3)nn2)c(C)c1 -7.44%, COc1ccc(C2=Nc3ccccc3NC(c3cccs3)=N2)cc1 -4.36%, O=C1CC(c2ccccc2)Sc2ccccc2N1Cc1ccc(F)cc1 (stereo not given) -39%, COc1cccc(CCNC(=O)c2c(O)nc3c(C)cccn3c2=O)c1 -13.8%, CC(Sc1nnc2ccc3ccccc3n12)C(=O)Nc1ccc(Cl)cc1 (stereo not given) 1.9%, COc1ccccc1NC(=O)Cn1c(SCC(=O)Nc2ccc(F)cc2)nc2ccccc21 -9.85%, Cc1nc2ccn(Cc3ccccc3)c(=O)c2cc1C(=O)N1CCN(c2ccc(F)cc2)CC1 -11%, NCCS(=O)(=O)O, COc1cc2nc(N3CCN(C(=O)c4ccco4)CC3)nc(N)c2cc1OC, COCCc1nn2c(=O)cc(COC(=O)C(c3ccccc3)c3ccccc3)nc2s1 -14.7%, CCOC(=O)c1cnc2cc(-c3ccc(OCC)cc3)nn2c1-c1ccccc1 -9.7%, CCCCS(=O)(=O)N[C@@H](Cc1ccc(OCCCCC2CCNCC2)cc1)C(=O)O -4.58%, Cc1ccc(S(=O)(=O)N2CCN(C(=O)c3cc(-c4ccc(Br)cc4)n[nH]3)CC2)c(C)c1 -39.6%, CCN(CC)c1ccc(NC(=O)c2cccn2-c2nnc(N3CCCCC3)s2)c(C)c1 -29.7%, Cc1c(Cl)cccc1-n1ncc(C(=O)N2CCN(c3ncccn3)CC2)c1C1CCN(C(=O)OC(C)(C)C)CC1 -0.9%, Cc1ccc(NC(=O)C(Cc2ccccc2)NS(=O)(=O)c2ccc3c(c2)c(=O)n(C)c(=O)n3C)c(C)c1 (stereo not given) -10.8%, CCCOc1ccc(CNC(=O)CCCn2ncn3c(cc4sc(CC)cc43)c2=O)cc1 -68%, COc1ccccc1CNC(=O)c1c[nH]c2ccc(S(=O)(=O)Nc3cc(C)cc(C)c3)cc2c1=O -39.2%, CCNS(=O)(=O)c1ccc(NC(=O)CSc2nc(-c3ccco3)cc(C(F)(F)F)n2)cc1 -42.5%, COc1cccc(NC(=O)CCC(=O)N2Cc3ccccc3Oc3ncccc32)c1 -9.96%, Cc1ccc(CNC(=O)CSc2nc3ccsc3c(=O)n2Cc2ccccc2F)cc1 -9.84%, Cc1ccc(-n2cc(-c3ccccc3)c3c(N4CCCCC4)ncnc32)cc1 -15.7%, CC(C)OC(=O)c1cccc(NC(=O)Cn2nnc3sc4c(c3c2=O)CCCC4)c1 -15.7%, Cc1cccc(Nc2nnc(-c3ccc(C)c(S(=O)(=O)N4CCCCC4)c3)c3ccccc23)c1 -9.97%, Cc1ccc(NC(=O)C2CCCN(S(=O)(=O)c3ccc4[nH]c(=O)ccc4c3)C2)cc1Cl (stereo not given) -24.6%, COc1ccc2c(c1)c1c(c(=O)n(CCc3ccccc3)c(=O)n1Cc1cccc(Cl)c1)n2C -8.42%, O=C(NCc1cccc(Cl)c1)c1c2c(nc3ccccc13)C(=O)N(C1CCCCC1)C2 -12.2%, CC(=O)Nc1cccc(NC(=O)c2cc3c(=O)n4cccc(C)c4nc3n2C)c1 0.419%
